# Measured values reported in article PMC4336329 (PLoS ONE, 2015).
# Out of some 310,000 compounds screened, about 14,000 (4.5%) showed an effect of 50% or more. Effects have a minus sign here. The list shows a part of the results.
# Target: human ether-à-go-go-related gene (hERG) potassium channel (human, UniProt Q12809)
# Experiment: primary screen, population patch clamp on CHO cells stably expressing hERG
# 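Also: peak tail current of the secondary pulse compared with the same well before compound.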
# Chain of human ether-à-go-go-related gene (hERG) potassium channel (Q12809 whole entry, looked up): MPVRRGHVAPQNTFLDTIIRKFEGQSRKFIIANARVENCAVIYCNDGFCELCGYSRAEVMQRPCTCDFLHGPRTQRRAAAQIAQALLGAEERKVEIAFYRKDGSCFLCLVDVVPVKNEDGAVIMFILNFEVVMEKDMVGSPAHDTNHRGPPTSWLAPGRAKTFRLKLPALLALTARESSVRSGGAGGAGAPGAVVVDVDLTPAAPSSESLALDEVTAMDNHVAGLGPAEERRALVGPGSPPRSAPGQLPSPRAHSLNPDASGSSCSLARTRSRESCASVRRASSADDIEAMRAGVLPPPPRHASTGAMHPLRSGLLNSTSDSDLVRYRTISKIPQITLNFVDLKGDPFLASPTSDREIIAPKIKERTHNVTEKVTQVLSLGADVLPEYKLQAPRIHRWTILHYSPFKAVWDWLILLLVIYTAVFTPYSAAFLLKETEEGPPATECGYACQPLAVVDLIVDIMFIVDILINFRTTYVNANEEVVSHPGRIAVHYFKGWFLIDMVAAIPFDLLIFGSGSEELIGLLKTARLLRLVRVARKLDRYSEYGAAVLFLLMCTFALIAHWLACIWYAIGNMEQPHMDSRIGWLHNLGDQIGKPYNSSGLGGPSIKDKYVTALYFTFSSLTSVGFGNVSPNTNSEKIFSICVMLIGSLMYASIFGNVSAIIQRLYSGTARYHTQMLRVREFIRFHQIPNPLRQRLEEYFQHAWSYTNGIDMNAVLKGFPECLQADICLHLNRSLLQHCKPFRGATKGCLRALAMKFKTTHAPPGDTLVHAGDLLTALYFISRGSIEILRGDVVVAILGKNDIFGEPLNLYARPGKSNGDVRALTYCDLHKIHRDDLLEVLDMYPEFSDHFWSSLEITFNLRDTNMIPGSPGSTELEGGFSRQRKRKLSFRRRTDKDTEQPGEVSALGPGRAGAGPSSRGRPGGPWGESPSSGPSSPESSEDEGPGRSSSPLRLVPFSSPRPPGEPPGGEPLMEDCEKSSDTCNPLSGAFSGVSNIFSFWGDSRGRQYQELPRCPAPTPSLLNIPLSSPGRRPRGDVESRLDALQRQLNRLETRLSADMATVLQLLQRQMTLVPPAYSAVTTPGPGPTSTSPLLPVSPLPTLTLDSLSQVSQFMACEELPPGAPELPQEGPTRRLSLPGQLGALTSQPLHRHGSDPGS
row,Structure (SMILES),"hERG current change (%, negative = inhibition) at 10uM [%]"
1,COc1ccc(CC(=O)NCCC2=CCCCC2)cc1,15
2,O=C1C2CCCN2C(c2cccnc2)N1c1nccs1 (centres unmarked),5.02
3,Cc1cccc(N2CCN(C(=O)c3ccccn3)CC2C)c1 (centres unmarked),14
4,CCCCC1=C([O-])C2N=CC=CC2=[N+](c2ccccn2)C1=O (centres unmarked),0.715
5,CC(=O)c1c(C)[nH]c(C(=O)OCc2c(F)cccc2Cl)c1C,5.08
6,COc1ccccc1-c1nnc(SCC(=O)NC2CCCCC2)o1,-27.4
7,Cc1cccc(Cn2cnc3c(nnn3Cc3ccc(Cl)cc3)c2=O)c1,5.51
8,N#Cc1ccc(Sc2ccccn2)c([N+](=O)[O-])c1,-61.5
9,CCOC(=O)C(Cc1ccc(O)cc1)NC(=O)CCc1c[nH]c2ccccc12 (centres unmarked),0.9
10,O=C(NCc1ccccc1)C(c1cccs1)N(Cc1cccs1)C(=O)c1cnccn1 (centres unmarked),-24.5
11,CCSc1nnc(NC(=O)CSc2nnc(CNC(=O)c3ccccc3F)o2)s1,3.38
12,COc1ccc(-c2nn(-c3ccccc3)cc2C(=O)N(C)CC(=O)Nc2ccc(N3CCOCC3)cc2)cc1,8.82
13,O=[N+]([O-])c1cc(Cl)ccc1Oc1ccc(-c2nnco2)cc1,20.2
14,COc1ccc(-c2csc(NC(=O)CN3C(=O)NC4(CCCC4)C3=O)n2)cc1OC,8.24
15,CCN1C2=NCCCN2c2ccccc21.Cl,1.64
16,C=CCc1cccc(CNc2nc3ccccc3n2CC)c1O,4.33
17,CN(C)S(=O)(=O)c1cccc(COc2ccccc2C(=O)Nc2ccccc2)c1,-14.4
18,COCCn1cnnc1SCC(=O)Nc1cccc(S(=O)(=O)N2CCCCC2)c1,-17.8
19,Cc1cc(C(F)(F)F)nn1CC(=O)NCc1ccccc1,6.58
20,CCOC(=O)/C=C/[C@H]1CC(c2ccccc2)(c2ccccc2)CO1,12
21,O=C(CSc1nnc(C2CC2)n1C1CC1)Nc1cccc(Br)c1,-75.1
22,O=C1c2ccccc2C(=O)N1c1ccc(S(=O)(=O)N2CCN(c3ccccc3)CC2)cc1,-0.796
23,CN(/N=C/c1ccco1)C1=NS(=O)(=O)c2ccccc21,4.85

row,Structure (SMILES),"hERG current change (%, negative = inhibition) at 10uM [%]"
1,Cc1ccc(C(=O)Nc2sc3c(c2C(=O)NCc2ccco2)CCCC3)cc1,8.5
2,N/N=C(\c1ccccc1)c1cc(Br)ccc1N,2.09
3,C1CCN=C(NC23CC4CC(CC(C4)C2)C3)CC1,20.9
4,CCCCOc1ccc(NC(=O)CSCC(=O)OCC)cc1,6.39
5,CCOC(=O)C1CCN(S(=O)(=O)c2ccccc2)CC1,9.46
6,CCOC(=O)c1ccc2nc(C)c(C)nc2c1,-2.88
7,COc1ccc(NC(=O)CO/N=C(\C)c2cccs2)cc1,0.991
8,CC(=O)Nc1ccc(S(=O)(=O)N2CCN(c3ncccn3)CC2)cc1,6.13
9,CCOc1ccc(N2C(=O)CC(NC3CCCCNC3=O)C2=O)cc1 (centres unmarked),-7.82
10,Cc1cccc(NC(=S)NNc2cccc(Cl)c2)c1,6.84
11,Cc1ccc(NC(=O)COC(=O)c2cccnc2Cl)cc1S(=O)(=O)N1CCCCC1,-16.5
12,CCCCN(CC(=O)NCc1ccc(Cl)cc1)S(=O)(=O)c1ccc2c(c1)OCCO2,-5.15
13,Cc1ccc(/C=C/C(=O)NCCCc2ccccc2)cc1,7.58
14,Cc1cc(C)n2cc(CSc3ncccc3C(=O)O)nc2n1,2.34
15,Cl.Nc1ccc2nc(C(F)(F)F)[nH]c2c1,18
16,C=CCNc1ccc(N2C(=O)C3CCC(C)CC3C2=O)cc1[N+](=O)[O-] (centres unmarked),-2.6
17,Cc1ccc(NC(=S)N(CCN(C)C)C(C)c2ccco2)cc1Cl (centres unmarked),-34.1
18,Cc1cccc(CSC2=NCCN2C(=O)c2ccco2)c1,-1.92
19,Cc1ccc(-c2c[n+](CC(=O)Nc3ccc(C)cc3C)c3n2CCC3)cc1.[Cl-],-30.8
20,Cc1ccccc1C(=O)N1CCC(C(=O)NN2C(=O)NC3(CCCCC3)C2=O)CC1,11.9
21,Cc1ccc(SC(CC(=O)c2ccc(C(C)(C)C)cc2)C(=O)O)cc1 (centres unmarked),3.76
22,COc1ccccc1N1CCN(Cc2cccs2)CC1,-9.46
23,CC(C)c1ccc(N(CC(=O)NCc2ccco2)C(=O)CCC(=O)Nc2ccccn2)cc1,1.81

row,Structure (SMILES),"hERG current change (%, negative = inhibition) at 10uM [%]"
1,CCCC(=O)NC(=S)Nc1cccc(Cl)c1N1CCCCC1,14.1
2,O=C(Nc1ccc(NC(=O)C2CC2)cc1)c1cccs1,-12.8
3,N#Cc1cc(C(=O)c2cc(F)ccc2O)cn(-c2nccs2)c1=O,12
4,COc1ccc2nc3oc(C(=O)N4CCCCC4)cc3cc2c1,-22.6
5,COC(=O)c1ccccc1NC(=O)C1CCN(S(C)(=O)=O)CC1,1.04
6,COc1ccc(N2CCN(C(=O)CN3C(=O)C4CC=CCC4C3=O)CC2)cc1 (centres unmarked),12.3
7,FC(F)(F)c1cnc(Oc2ccccc2-c2nnco2)c(Cl)c1,5.65
8,O=c1[nH]c2c(c(=O)n1C1CCCCC1)CCC2,6.39
9,COC(=O)c1ccc(CN2C(=O)c3ccccc3S2(=O)=O)cc1,-19
10,Cc1ccc(S(=O)(=O)N2CCN(C(=O)CN3CCOCC3)C2C(C)C)cc1 (centres unmarked),-5.14
11,C[C@H](CCC(=O)O)[C@H]1CC[C@H]2[C@@H]3[C@H](O)C[C@@H]4C[C@H](O)CC[C@]4(C)[C@H]3CC[C@]12C,13.8
12,CCOC(=O)CN1CC23C=CC(O2)C(C(=O)Nc2cc(OC)ccc2OC)C3C1=O (centres unmarked),-3.04
13,CN(CCc1ccccn1)c1ccc([N+](=O)[O-])cn1,-1.64
14,Cc1cccc(C(=O)Nc2nnc(S(=O)(=O)N(C)Cc3ccco3)s2)c1,14.3
15,NC(=S)C1COc2ccccc2O1 (centres unmarked),16.9
16,O=C(NCc1cccs1)c1ccc2ccccc2n1,-9.78
17,OCCC1CN(C2CCC2)CCN1Cc1ccc(F)c(F)c1 (centres unmarked),5.12
18,CCOc1ccc(CCNC(=O)CCC(=O)Nc2ccc3nc(N4CCN(C)CC4)cc(C)c3c2)cc1OCC,6.68
19,CSc1ccccc1NC(=O)c1ccco1,-9.54
20,O=C1[C@H]2CC3CCC2(O3)[C@@H]2OCCCN12 (some centres unmarked),4.02
21,O=C(OCc1nnc(-c2ccccc2)o1)c1ccc2c(c1)OCO2,-21.1
22,NC(=O)C1CCN(C(=O)C2CCC(=O)N(Cc3ccc(Cl)cc3)C2)CC1 (centres unmarked),15.3
23,COc1ccccc1N(C)S(=O)(=O)c1ccc(C(=O)N2CCCc3ccccc32)cc1,-5.85

row,Structure (SMILES),"hERG current change (%, negative = inhibition) at 10uM [%]"
1,Cc1cc2oc(=O)sc2cc1NS(=O)(=O)c1ccccc1,18.9
2,COc1ccc(CNC(=O)C(c2ccccc2F)N(C(=O)c2csnn2)C2CC2)cc1 (centres unmarked),0.921
3,CCOC(=O)c1c[nH]c2c(Cl)c(Cl)ccc2c1=O,9.54
4,CC1CCc2sc(C(=O)NCc3ccccn3)cc2C1 (centres unmarked),-5.07
5,Cc1cc(C)cc(NC(=O)N2c3ccccc3NC(=O)CC2C)c1 (centres unmarked),3.82
6,O=C(CN1CCC(Cc2ccccc2)CC1)Nc1ccc2c(c1)OCCO2,-42.8
7,CC(C)NC(=O)CCn1c(=S)oc2ccccc21,5.78
8,O=C(CC(c1ccccc1)c1ccccc1)Nc1ncn[nH]1,0.0287
9,Cn1cc(S(=O)(=O)NCc2ccco2)c(=O)n(C)c1=O,3.03
10,C[C@H](NC(=O)c1ccco1)C(=O)Nc1cccc([N+](=O)[O-])c1,9.41
11,CC1(C)C2CCC(C2)C1(C)N=C1OC(CCl)CS1 (centres unmarked),5.72
12,OCCN=C(c1ccccc1)C12CN3CN(CN(C3)C1)C2,-12.3
13,Cc1[nH]c2ccccc2c1C(=O)C(=O)NCCCn1ccnc1,10.5
14,Fc1ccc2nc3c(nc2c1)CCCC3,15.3
15,Cc1oc2c(cc(NS(=O)(=O)c3cccs3)c3ccccc32)c1C(=O)OC(C)C,10.8
16,CC(C)=CCc1cc([C@@H]2CC(=O)c3ccc(O)c(CC=C(C)C)c3O2)ccc1O,0.959
17,CCOc1ccc(OCC)c(NS(=O)(=O)c2cn(C)cn2)c1,19.8
18,O=C1CS/C(=N/N=C/c2ccco2)N1Cc1ccc(F)cc1,6.46
19,COc1ccc(C(=O)C2CCCN(C(=O)c3cc(C4CC4)[nH]n3)C2)c(C)c1 (centres unmarked),17.1
20,COCCNC(=O)CN(c1ccc(C)cc1)S(=O)(=O)c1ccccc1,9.01
21,CCCS(=O)(=O)N1CCN(C2Cc3ccccc3C2)CC1.O=C(O)C(=O)O,-9.04
22,CN(C)/C=N/c1c(C#N)cnn1-c1ccc(C(F)(F)F)cn1,4.98
23,CCOC(=O)CNC(=O)CSc1nnc(NC(=O)c2ccc(C)cc2)s1,-3.25
